Assay results reported in PMC6919601, “Identification of Plasmodium dipeptidyl aminopeptidase allosteric inhibitors by high throughput screening” (PLoS ONE, 2019).
In all, about 110,000 compounds went through this assay and about 230 (0.21%) showed an effect of 50% or more. This is one part of the list.

target: DPAP1 (Plasmodium falciparum, UniProt Q8IIJ9); assay: primary screen, percent inhibition; read by cleavage of a fluorogenic dipeptide substrate; higher = more effect of the substance; design: species or system P. falciparum D10 trophozoite lysates; single well
Sequence (Q8IIJ9 whole entry, looked up): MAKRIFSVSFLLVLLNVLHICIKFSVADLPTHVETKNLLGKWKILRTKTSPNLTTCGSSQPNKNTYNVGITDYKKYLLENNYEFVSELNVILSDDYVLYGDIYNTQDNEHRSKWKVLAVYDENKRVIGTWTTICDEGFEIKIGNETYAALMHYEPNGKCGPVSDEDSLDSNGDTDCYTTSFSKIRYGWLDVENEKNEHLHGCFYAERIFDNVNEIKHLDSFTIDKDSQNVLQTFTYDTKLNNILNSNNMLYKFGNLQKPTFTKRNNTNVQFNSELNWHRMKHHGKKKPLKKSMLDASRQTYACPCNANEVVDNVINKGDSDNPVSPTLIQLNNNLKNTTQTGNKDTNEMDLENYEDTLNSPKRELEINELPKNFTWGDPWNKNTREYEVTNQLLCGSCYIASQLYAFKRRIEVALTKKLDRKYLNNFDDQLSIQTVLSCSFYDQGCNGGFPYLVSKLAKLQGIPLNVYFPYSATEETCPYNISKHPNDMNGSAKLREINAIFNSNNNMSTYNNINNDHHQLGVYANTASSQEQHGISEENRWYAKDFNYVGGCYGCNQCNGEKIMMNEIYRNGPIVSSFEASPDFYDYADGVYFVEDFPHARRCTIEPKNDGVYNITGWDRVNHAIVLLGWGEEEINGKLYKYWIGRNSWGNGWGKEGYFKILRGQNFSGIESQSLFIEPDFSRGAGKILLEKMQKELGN
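Also: 30 min substrate incubation versus DMSO and 10 µM JCP410 controls.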

SMILES	% Inhibition @ 10 uM
CC(=O)c1cn(CC(=O)NCc2cccnc2)c2ccccc12	0.0289%
Clc1ccc(CN2CCN(c3ncccn3)CC2)cc1	-1.07%
COc1cc2c(cc1OC)C(c1ccc(Cl)cc1Cl)NCC2 (centres unmarked)	-0.254%
COc1nccnc1NS(=O)(=O)c1ccc(NC(=S)NC(=O)/C=C/c2ccco2)cc1	3.47%
CC1CCC(Nc2nc3c(-c4cccc(F)c4)nnn3c3ccccc23)CC1 (centres unmarked)	3.59%
CC1=C(C(N)=O)C(c2ccccn2)n2ncnc2N1 (centres unmarked)	3.6%
CC(NC(=O)c1cccnc1)c1cc2c(cc1Cl)OCCO2 (centres unmarked)	0.475%
CN(C)c1ccnc(N(Cc2ccccc2)Cc2ccccc2)c1C#N	0.878%
CCCc1nc2nc(C)c(NC(=O)c3cccc(F)c3)c(O)n2n1	-2.78%
Cc1ccc(OCCOc2cccc(/C=N/n3cnnc3)c2)cc1	-1.24%
O=C(C1=C(O)C(=O)N(Cc2ccccc2)C1c1ccncc1)c1ccccc1 (centres unmarked)	-2.05%
N#Cc1c(-c2ccco2)cc(-c2cccs2)nc1OCC(N)=O	7.22%
COc1ccc(/C=C/C(=O)N2CCCCC2)cc1	9.29%
COc1ccccc1CNC(=O)c1ccc(C/N=c2/c(N3CCOCC3)c(O)c2=O)cc1	4.33%
FC(F)(F)c1cc(-c2ccco2)nc2cc(-c3ccccc3)nn12	2%
O=C(NCCCO)C(=O)NC1CCCCC1	-5.9%
CC1=C(C(N)=O)C(c2ccco2)C(C(N)=O)=C(C)N1	-2.29%
CN(C)CCN1C(=O)CC2(C)Sc3ccccc3N=C12 (centres unmarked)	2.48%
Cc1cc(O)c2c3c4c(cc(O)c13)C(C)(C)C(=O)c1c(O)cc(O)c(c1-4)C2=O	21.6%
CC(=O)n1c2ccccc2c2c1c1ccccc1n2C	2.51%
CCOC(=O)c1ccc(Nc2ccc([N+](=O)[O-])cn2)cc1	-2.6%
Cc1cc(NS(=O)(=O)c2ccc(NC(=O)COc3ccc(C(C)(C)C)cc3)cc2)no1	4.77%
O=C(CCCOc1ccc(Cl)cc1Cl)Nc1ccc(S(=O)(=O)N2CCOCC2)cc1	1.7%
CCCCCOC(=O)Nc1ccc(S(=O)(=O)Nc2ccc(Br)cc2)cc1	-7.11%
Cc1cc(Oc2nc3ccccn3c(=O)c2/C=C(\C#N)C(=O)NC2CCCC2)ccc1Cl	16.3%

SMILES	% Inhibition @ 10 uM
CC(/N=C/C1=C(O)CNC1=O)c1ccccc1 (centres unmarked)	2.17%
COc1cc(OC)c(/C=C2\SC(=O)N(Cc3ccc(F)cc3)C2=O)cc1Br	1.81%
Cc1nnc2c3ccccc3c(N3CCOCC3)nn12	5.36%
O=S1(=O)C(/C=N/Cc2ccco2)=C(O)c2sccc2N1Cc1ccccc1	-2.53%
N#C/C(=C\c1cccc(F)c1)c1nc(-c2ccc(Cl)c(Cl)c2)cs1	-2.42%
O=C(C1c2ccccc2C(=O)N2CCc3ccccc3C12)N1CCN(C2CCCCC2)CC1 (centres unmarked)	-8.56%
Cc1onc(-c2ccccc2)c1C(=O)NCCCNC(=O)c1c(-c2ccccc2)noc1C	3.6%
Cc1ccccc1C(=O)NCCn1c(C)cc2ccccc21	-0.396%
COc1ccc(NS(=O)(=O)c2ccc([N+](=O)[O-])cc2)cc1	5.69%
COc1cccc(-c2csc(C(=O)N[C@@H](CC(C)C)C(=O)NCC#N)c2)c1	-1.41%
O=C(NCCOc1ccc(F)cc1)c1cccs1	0.0719%
Cc1ccccc1C(=O)NCc1nc(-c2ccccc2)no1	-1.22%
CC1(C)CC(=O)C2=C(C1)c1c(ccc3ccccc13)NC2c1ccc(-c2ccc(C(=O)O)cc2)o1 (centres unmarked)	6.9%
CCOC(=O)C1CCN(Cc2ccc(N(C)C)cc2)CC1	3.25%
CCNC(=O)C1c2ccccc2C(=O)N(C2CCCC2)C1c1cccs1 (centres unmarked)	-5.3%
O=C(CSc1nc(O)cc(-c2ccccc2)n1)c1c[nH]c2ccccc12	4.18%
CCOC(=O)N1CCC(NC(=O)Cn2nc(Cc3ccncc3)c3ccccc3c2=O)CC1	2.04%
COC(=O)Nc1ccccc1C(=O)N1CCCCC1	0.83%
Cc1sc2c(c1C)c(=O)n(Cc1ccccc1)c(=O)n2Cc1cc(=O)n2ccccc2n1	10.4%
CC(C(=O)NCCCN1CCCC1=O)n1c2ccccc2c2cnn(C)c(=O)c21 (centres unmarked)	1.18%
Cc1ccc2c(c1)cc1c(=O)n(CC(=O)NC3CCCc4ccccc43)nc(C)n12 (centres unmarked)	-5.32%
O=C(NCCN1CCOCC1)c1cc2c(s1)-c1ccccc1S(=O)(=O)C2	-3.96%
C=CCSc1nnc(NC(=O)c2nc(S(=O)(=O)Cc3ccc(F)cc3)ncc2Cl)s1	-2.71%
COc1ccc(Cl)cc1-n1nnc(-c2nc(-c3ccncc3)no2)c1N	3.73%
CC(C)n1c(-c2cccc(N)c2)nc2ccccc21	0.795%

SMILES	% Inhibition @ 10 uM
Cc1cccc(-c2noc(CCC(=O)NCc3ccco3)n2)c1	-0.45%
COc1ccccc1OCC(=O)Nc1ccc(S(=O)(=O)Nc2nc(C)cc(C)n2)cc1	-0.473%
CN(C)c1ccc(/C=C2\C(=O)NC(=O)N(c3ccccc3Cl)C2=O)cc1	3.44%
COc1ccc(OC)c(C2NC(S)=NC(C)=C2C(=O)OC2CCC(C)C(C)C2)c1 (centres unmarked)	0.736%
Cc1cccc(Oc2nc3c(C)cccn3c(=O)c2/C=C(\C#N)C(=O)NCC2CCCO2)c1C (centres unmarked)	0.315%
Cc1ccc(CS(=O)Cc2ccc(C(=O)NC3CCCCC3)o2)cc1 (centres unmarked)	-3.65%
CC(=O)N(C)c1c(N)n(Cc2ccccc2)c(=O)[nH]c1=O	4.03%
CCOC(=O)c1cnn(CCOC(=O)c2ccc(OC)cc2)c1NC(=O)c1ccc(OC)cc1	-2.92%
O=C(Nc1cnn(Cc2ccc(F)cc2)c1)c1cnn2c(C(F)F)cc(-c3ccccc3)nc12	2.46%
O=C(CC[S+](O)CCC(=O)NCc1ccccc1)NCc1ccccc1	2.94%
O=C(Nc1ccccc1C(=O)O)c1ccc(Cl)cc1	3.06%
CCCCN(C)CCCNC(=O)c1ccc(-n2c(C)cc3c2CCCC3)cc1	3.24%
CC(=O)c1cc2c(cc1NC(=O)COc1ccccc1)OCO2	7%
COc1ccc(NC(=O)C2CC2(c2ccccc2)c2ccccc2)cc1 (centres unmarked)	-3.93%
O=C1CCCN1CCP(=O)(O)CN1CCCCC1	-7.02%
CCc1ccc(C2=NN(CCC(=O)NCc3ccccc3Cl)C(=O)CC2)cc1	-4.53%
CCC(C)n1nc(O)c2c1NC(=O)CSC2c1ccc(Cl)cc1Cl (centres unmarked)	-6.02%
O=C(NCc1cccnc1)C1CCC(CNS(=O)(=O)c2cccc3nsnc23)CC1 (centres unmarked)	-2.25%
CCOC(=O)N1CCC(NC(=O)c2cc(S(=O)(=O)N3CCOCC3)ccc2F)CC1	-5.64%
Cc1c2c(nc3c(C(=O)NC4CCCC(C)C4C)cnn13)CCCC2 (centres unmarked)	1.27%
C=CCNC(=O)c1c(O)nc2ccccc2c1O	1.27%
O=C(Nc1ccc(O)cc1)c1sc2ccccc2c1Cl	-4.43%
COc1ccc(CC(=O)NCc2ccc(Cl)c(Cl)c2)cc1OC	6.77%
Cc1ccc2oc(=O)c3cnn(CC(=O)N4CCN(C5CCCCC5)CC4)c3c2c1	1.62%
CCc1nn(CC(=O)NC(C)CCc2ccco2)c(=O)c2cc3sccc3n12 (centres unmarked)	3.4%

SMILES	% Inhibition @ 10 uM
N#CCCn1c(COc2ccc(Cl)cc2Cl)nc2ccccc21	-3.48%
CN1CCC(NC2c3ccccc3-c3ccccc32)CC1	-5.31%
CC(Oc1ccccc1)C(=O)n1nc(-c2ccco2)nc1NCc1cccs1 (centres unmarked)	-3.24%
O=C(Cn1cnc2ccccc21)NCCCN1CCOCC1	-1.51%
CC(C)(C)C(=O)NCCc1nc2ccccc2n1CCCOc1ccccc1	-4.07%
COc1cc(/C=C2/SC(=O)N(CC(=O)N3CCN(c4ccccc4)CC3)C2=O)cc(OC)c1OC	1.17%
CN1CCN(c2nc(-c3ccc(C(=O)NC4(C(=O)NCC#N)CCOCC4)cc3)cs2)CC1	-6.46%
O=C(Nc1sc2c(c1C(=O)O)CCCCC2)c1cccs1	-3.25%
COC(=O)c1ccc(C2/C(=C(\O)OC3CCCCC3)C(C)=Nc3ncnn32)cc1 (centres unmarked)	-0.326%
Cc1cccc(NC(=O)c2ccccc2NC(=O)c2ccccn2)c1	6.82%
COc1ccc(CO/N=C/c2c(C)[nH]c(=O)[nH]c2=O)cc1	2.17%
CN1CCN(CCCOc2ccccc2-c2ccccc2)CC1	-11.2%
O=C1/C(=C/c2ccc(N3CCOCC3)cc2)S/C(=N\c2ccccc2)N1CC1CCCO1 (centres unmarked)	7.17%
CCN1CCN(C(=O)c2ccc(CS(=O)(=O)c3ccccc3C)o2)CC1	-1.51%
CCOC(=O)c1c(C)[nH]c(C)c1S(=O)(=O)NC(C)c1ccc2c(c1)OCCO2 (centres unmarked)	-3.45%
OC1=C2C(=Nc3nc(SCc4ccccc4)nn3C2c2cccnc2)CCC1 (centres unmarked)	-0.363%
CNC(=O)C(=O)Nc1c(C)cccc1C	-3.57%
COc1ccc(/C=C2\C(=O)ON=C2c2ccccc2)cc1COCC(F)(F)F	-2.9%
Cc1onc(-c2ccccc2Cl)c1-c1nc(-c2ccccc2)no1	4.91%
OCc1cc2ccccc2nc1O	-4.91%
O=S(=O)(c1ccc(Cl)s1)N1CCN(c2nc3ccccc3nc2-c2ccccc2)CC1	2.77%
COc1cccc(-c2nc(CS(=O)(=O)CC(=O)NC3CCCCC3C)c(C)o2)c1 (centres unmarked)	-5.58%
Cc1ccc2nc(NC(=O)C3CCCN(S(=O)(=O)c4ccc5nc(O)oc5c4)C3)sc2c1 (centres unmarked)	-6.38%
